Out of some 220,000 compounds screened, about 5,700 (2.6%) were called active. Inconclusive results, whose numbers are uncertain, are shown with a selection of clear calls. Calls come from the whole dose curve; as a rule, active = well fitted inhibition curve with a large enough effect; inconclusive = small, poorly fitted or top-dose-only effect; inactive = no such curve, though single readings can be large or run the other way. Potencies beside an inconclusive call are fits to weak or partial responses and may not hold up.
These compounds were tested against Lysine-specific demethylase 5B (Homo sapiens) (UniProt Q9UGL1) (assay: Primary screen for KDM5B Histone Demethylases FDH-coupled qHTS). Details: FDH-coupled NADH fluorescence (FDH is formaldehyde dehydrogenase); activity change, negative = inhibition: at 57.7 µM (top of the series) unless noted.
Sequence of UniProt Q9UGL1 (Q9UGL1 whole entry, looked up): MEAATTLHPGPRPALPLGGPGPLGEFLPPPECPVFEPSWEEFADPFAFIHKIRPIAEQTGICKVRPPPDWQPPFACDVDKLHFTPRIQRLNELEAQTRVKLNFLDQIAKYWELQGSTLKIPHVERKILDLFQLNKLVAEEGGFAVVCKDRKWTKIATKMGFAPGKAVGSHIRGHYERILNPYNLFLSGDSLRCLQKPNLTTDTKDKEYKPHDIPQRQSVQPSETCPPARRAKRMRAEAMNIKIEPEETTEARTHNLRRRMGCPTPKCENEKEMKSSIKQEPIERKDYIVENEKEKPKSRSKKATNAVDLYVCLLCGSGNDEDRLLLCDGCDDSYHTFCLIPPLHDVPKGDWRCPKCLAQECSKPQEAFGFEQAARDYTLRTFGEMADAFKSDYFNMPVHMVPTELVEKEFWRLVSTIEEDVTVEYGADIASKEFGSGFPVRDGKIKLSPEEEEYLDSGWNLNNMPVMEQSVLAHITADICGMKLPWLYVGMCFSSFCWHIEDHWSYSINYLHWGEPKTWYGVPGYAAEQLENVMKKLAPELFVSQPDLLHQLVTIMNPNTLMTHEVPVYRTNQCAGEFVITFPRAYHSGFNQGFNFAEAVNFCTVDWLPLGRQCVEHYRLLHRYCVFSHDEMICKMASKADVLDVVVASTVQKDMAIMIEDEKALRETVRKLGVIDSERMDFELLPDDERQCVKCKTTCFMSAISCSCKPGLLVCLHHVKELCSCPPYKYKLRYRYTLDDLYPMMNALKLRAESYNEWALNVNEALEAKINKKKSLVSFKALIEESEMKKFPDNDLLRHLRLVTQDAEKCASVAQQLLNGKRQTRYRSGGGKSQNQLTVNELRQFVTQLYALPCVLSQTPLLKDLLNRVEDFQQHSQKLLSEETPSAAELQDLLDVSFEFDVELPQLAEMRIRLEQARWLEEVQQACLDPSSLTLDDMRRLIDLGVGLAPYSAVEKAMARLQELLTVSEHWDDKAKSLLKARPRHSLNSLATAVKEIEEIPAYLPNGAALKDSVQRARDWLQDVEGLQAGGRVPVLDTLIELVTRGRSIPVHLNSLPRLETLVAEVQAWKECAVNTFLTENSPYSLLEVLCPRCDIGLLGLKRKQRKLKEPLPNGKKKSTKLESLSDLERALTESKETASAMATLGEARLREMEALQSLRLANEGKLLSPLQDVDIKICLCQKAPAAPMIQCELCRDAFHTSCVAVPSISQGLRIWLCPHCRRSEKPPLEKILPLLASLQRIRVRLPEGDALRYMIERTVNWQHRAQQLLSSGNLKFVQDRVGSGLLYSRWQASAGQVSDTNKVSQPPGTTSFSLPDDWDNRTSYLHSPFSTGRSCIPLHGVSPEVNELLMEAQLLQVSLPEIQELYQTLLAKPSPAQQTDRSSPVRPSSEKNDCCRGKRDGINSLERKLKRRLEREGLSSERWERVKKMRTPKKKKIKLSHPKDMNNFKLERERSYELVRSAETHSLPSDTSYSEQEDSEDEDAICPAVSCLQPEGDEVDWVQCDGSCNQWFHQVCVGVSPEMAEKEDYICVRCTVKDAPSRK
Method in brief: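 Here, H3K4me3 peptide (12.5 µM in substrate mix) is demethylated by KDM5BΔAP, 200 nM final, after 10 min compound exposure. Formaldehyde product is coupled through FDH (0.25 U/mL in mix) to NADH fluorescence; 30-min ΔRFU feeds dose-response curves.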
Note: nearly all actives have a fitted effect of over 70% in size.
Potency is the fitted concentration of half-maximal effect; tags give direction and shape of the fitted curve.
Throughout, for activity change, negative = inhibition: 0% is about no effect.

SMILES	Potency	activity change, negative = inhibition
O=S(=O)(c1cccc2nsnc12)n1cccn1	inconclusive: 28.2 µM [inhibitor, single point]	–
Cc1ccc(C)c(NS(=O)(=O)c2ccc3c4c(cccc24)C(=O)N3)c1	inconclusive: 0.794 µM [inhibitor, partial curve, poor fit]	–
Cc1ccc(C(=O)Nc2ccccc2C(=O)Cc2ccccc2)cc1	–	inactive: 2.16%
CS(=O)(=O)c1ncc(N(Cc2ccco2)Cc2ccco2)c(C(=O)Nc2ccccc2Br)n1	–	inactive: -25.2%
COc1cccc(NC(=O)N2CCOc3ccc(Cl)cc32)c1	–	inactive: 6.08%
CN(Cc1ccccc1C(F)(F)F)C(=O)c1ccc(C(F)(F)F)cc1	–	inactive: 0.943%
CN1CC2(CCN(C(=O)NCCc3ccccc3)CC2)CC1C(=O)N1CCOCC1 (stereo not given)	inconclusive: 25.1 µM [inhibitor, partial curve, poor fit]	–
COc1ccc(OC)c(NC(=O)c2cc3c(s2)-c2ccccc2SC3)c1	inconclusive: 35.5 µM [inhibitor, partial curve, poor fit]	–
COc1ccc(NC(=O)c2cc(NC(=O)C(C)C)cc3nc(C)ccc23)cc1	–	inactive: -22.6%
O=C(Cn1cnc2ccccc2c1=O)Nc1ccc(Cl)c(S(=O)(=O)N2CCOCC2)c1	–	inactive: -4.25%
Cn1cnc(S(=O)(=O)N2CCC3(CC2)CC(Cc2ccccc2)CCO3)c1 (stereo not given)	–	inactive: 1.34%
CCOc1ccc(NC(=O)CSC2=NC3(CCCCC3)Nc3ccccc32)cc1	inconclusive: 25.1 µM [inhibitor, single point]	–
COCC1CN(C)CC12CCN(Cc1scnc1C)CC2 (stereo not given)	inconclusive: 15.8 µM [inhibitor, partial curve]	–
CN(CCc1ccccn1)C(=O)CCC[C@H]1NC[C@@H]2CC1CN(Cc1ccccc1)C2	inconclusive: 15.8 µM [inhibitor, partial curve, poor fit]	–
O=C(C1CC1)N1CCC2(CC1)SCC(=O)N2c1ccc(Cl)cc1	inconclusive: 31.6 µM [inhibitor, single point]	–
COc1cccc2cc(-c3nn4c(C(C)C)nnc4s3)oc12	–	inactive: -21.3%
COCCNc1nc2c(S(=O)(=O)c3c(C)cc(C)cc3C)nnn2c2ccccc12	inconclusive: 3.55 µM [inhibitor, full curve, poor fit]	–
CC(=O)Nc1ccc(-c2csc(NC(=O)c3nn(C(C)C)c(=O)c4ccccc34)n2)cc1	–	inactive: 4.77%
COC(=O)/C=C/c1ccc(OCc2ccc(Br)cc2)c(OC)c1	–	inactive: 22.9%
CSc1ccc(C2=NN(C(=O)C(C)C)C(c3ccc4nccnc4c3)C2)cc1 (stereo not given)	–	inactive: 1.54%
CC1=C(C(=O)OC(C)C)C(c2ccccc2F)N2C(CC(=O)N3CCCC3)=CSC2=N1 (stereo not given)	inconclusive: 28.2 µM [inhibitor, partial curve, poor fit]	–
O=Cc1cnccc1-c1ccccc1	–	inactive: -4.42%
Cc1ccccc1CNC(=O)c1ccc2c(c1)C(O)CCCCCN2C (stereo not given)	inconclusive: 20 µM [inhibitor, partial curve, poor fit]	–
O=C(c1ccccn1)N1CCCC(c2nc(C3CCOCC3)no2)C1 (stereo not given)	inconclusive: 25.1 µM [inhibitor, partial curve, poor fit]	–

SMILES	Potency	activity change, negative = inhibition
O=C(c1cccc(F)c1)N1CCCC(Cc2nc(C3CCOCC3)no2)C1 (stereo not given)	inconclusive: 28.2 µM [inhibitor, single point]	–
FC(F)(F)c1ccccc1/C=N/n1c(COc2ccccc2)n[nH]c1=S	inconclusive: 20 µM [inhibitor, partial curve, poor fit]	–
CCOc1ccc(CCNC(=O)Cn2ccn3nc(-c4ccccc4)c(CO)c3c2=O)cc1OCC	inconclusive: 25.1 µM [inhibitor, partial curve, poor fit]	–
COc1ccccc1CNCc1ccc(OC)c2ccccc12	inconclusive: 10 µM [inhibitor, partial curve, poor fit]	–
Cc1ccc(NC(=O)c2ncn(-c3ccccc3)n2)cc1Cl	inconclusive: 31.6 µM [inhibitor, single point]	–
COc1ccc(CN2Cc3[nH]cnc3C[C@H]2c2nc(C(C)C)no2)cc1	inconclusive: 31.6 µM [inhibitor, partial curve, poor fit]	–
CN1CCCC1CCNc1nccc(-c2cnn(-c3ccccc3F)c2)n1 (stereo not given)	active: 28.2 µM	–
CC(C)OCCCNc1nc2c(S(=O)(=O)c3ccccc3)nnn2c2ccccc12	inconclusive: 89.1 µM [inhibitor, partial curve, poor fit]	–
O=C(Cc1ccccc1)N(Cc1cccc2[nH]ccc12)C1CC1	–	inactive: -8.74%
CCOc1ccc2c(n1)CCN(C(=O)c1ccccn1)C2	inconclusive: 12.6 µM [inhibitor, partial curve, poor fit]	–
Cc1cc(C)c(S(=O)(=O)Nc2cccc(-c3cn4ccc(C)cc4n3)c2)c(C)c1	inconclusive: 28.2 µM [inhibitor, partial curve, poor fit]	–
Cc1ccccc1OCC(O)CN1CCN(c2nccs2)CC1 (stereo not given)	–	inactive: 11.8%
CNS(=O)(=O)Cc1ccccc1CNC(=O)c1cc(Br)ccc1Cl	–	inactive: 20.7%
CCN(CC)S(=O)(=O)N(C)CC1CCCN(CCc2ccccc2OC)C1 (stereo not given)	inconclusive: 31.6 µM [inhibitor, single point]	–
COc1ccc(CN[C@@H]2C=C[C@@H](c3c(C)nn(-c4ccc(OC)cc4)c3C)C2)cc1	inconclusive: 31.6 µM [inhibitor, partial curve]	–
COc1cccc(/C=C/C(=O)OCc2ccc(C#N)cc2)c1OC	inconclusive: 25.1 µM [inhibitor, partial curve, poor fit]	–
COc1cccc(CNC(=O)CN(C(=O)C2=C(C)OCCS2)c2ccc(Cl)cc2)c1OC	–	inactive: -1.42%
C[S+](=O)([O-])c1ccc(CC(=O)N2CC(COc3ccccc3)C3(C2)CN(c2ccccc2)C3)cc1 (stereo not given)	inconclusive: 35.5 µM [inhibitor, single point]	–
COC(=O)[C@@H]1Cc2nc[nH]c2CN1C	inconclusive: 35.5 µM [inhibitor, partial curve, poor fit]	–
Cc1ccc(C(=O)Nc2cccc(-c3nc4ccccc4s3)c2C)cc1	–	inactive: -12%
COc1ccc(/C=C/c2nc3ccccc3s2)cc1OC(F)F	inconclusive: 39.8 µM [inhibitor, single point]	–
CCN(C(=O)CSc1ncc(S(=O)(=O)c2ccc(C)c(Cl)c2)c(=O)[nH]1)c1cccc(C)c1	inconclusive: 15.8 µM [inhibitor, partial curve, poor fit]	–
Cc1cc(NC(=O)CCCn2c(C)c3cnn(-c4ccccc4)c(=O)c3c2C)ccc1Br	inconclusive: 17.8 µM [inhibitor, partial curve, poor fit]	–
COCCN1CCCCCC(O)c2cc(C(=O)NCCc3nc4ccccc4n3C)ccc21 (stereo not given)	–	inactive: -12.8%

SMILES	Potency	activity change, negative = inhibition
Cc1cc(C)n(CC(=O)Nc2cc(C(F)(F)F)ccc2Cl)c(=O)c1C#N	–	inactive: 0.0453%
COc1cccc(-c2ccc(C(=O)N3CCC4(CCCN(C)C4=O)C3)o2)c1 (stereo not given)	inconclusive: 20 µM [inhibitor, partial curve, poor fit]	–
Fc1ccc(CSc2nc(CN3CCOCC3)nc3ccccc23)c(Cl)c1	–	inactive: 14.9%
O=S(=O)(c1ccc2ccccc2c1)n1nc(-c2ccco2)nc1NCc1ccc(F)cc1	inconclusive: 25.1 µM [inhibitor, partial curve, poor fit]	–
CN(Cc1ccc(C(=O)NC2CC2)cc1)C(=O)c1cc(=O)[nH]c2ccccc12	inconclusive: 39.8 µM [inhibitor, single point]	–
COc1ccc(OC)c(NC(=O)c2c(NCc3ccc(C)o3)sc3c2CCC(C)C3)c1 (stereo not given)	inconclusive: 14.1 µM [inhibitor, partial curve, poor fit]	–
CCN(CC)C(CNS(=O)(=O)c1ccc(C#N)cc1)c1ccsc1 (stereo not given)	–	inactive: 9.87%
CN(C)c1ccc(Nc2nc(-c3cc4ccccc4oc3=O)cs2)cc1	inconclusive: 39.8 µM [inhibitor, partial curve, poor fit]	–
CCc1noc(-c2cccn3c(CNC(=O)c4ccccc4F)nnc23)n1	active: 31.6 µM	–
COc1ccc(C2=NC(=O)NC2c2ccc(OC)cc2)cc1 (stereo not given)	inconclusive: 39.8 µM [inhibitor, single point]	–
COc1cccc(-c2cc(-c3ccncc3)c3cncn3c2)c1OC	–	inactive: -34% [at 86.2 µM]
CC1CCN(S(=O)(=O)NC(C)Cc2ccco2)CC1 (stereo not given)	–	inactive: 9.1%
Cc1ccc(NC(=O)Cc2nc(-c3c[nH]c(C(=O)N4CCCC4)c3)cs2)cc1	inconclusive: 20 µM [inhibitor, single point]	–
COc1cc(OC)c(CNC(=O)c2c(C)noc2-c2cc(OC)c(OC)c(OC)c2)c(OC)c1	inconclusive: 35.5 µM [inhibitor, single point]	–
Cc1ccc(C)c(OCC(O)Cn2cnc3sccc3c2=O)c1C (stereo not given)	–	inactive: -8.08%
Fc1ccc(CNCCOc2ccccn2)cc1	–	inactive: -23%
CCCc1cc(=O)n2nc(N(C)CC(=O)Nc3cc(Cl)ccc3C)sc2n1	–	inactive: -4.8%
O=C(NCc1cccs1)c1cccc2ccccc12	–	inactive: -15.6%
O=C(CSc1ccc(F)cc1)c1ccc2c(c1)-c1ccccc1C2	inconclusive: 39.8 µM [inhibitor, single point]	–
CCN(Cc1ccccc1)C(=O)Cn1c(=O)n(Cc2ccccc2)c(=O)c2c1c1cc(OC)ccc1n2C	inconclusive: 17.8 µM [inhibitor, partial curve, poor fit]	–
CN(C)c1ccc(C(=O)N2CCN(C(=O)c3ccc(N(C)C)cc3)[C@H](C(=O)N[C@H](Cc3c[nH]c4ccccc34)C(N)=O)C2)cc1	active: 28.2 µM	–
Cc1oc2cc(O)ccc2c(=O)c1Oc1ccc(C(=O)O)cc1	inconclusive: 25.1 µM [inhibitor, partial curve, poor fit]	–
